{"source": "PubChem BioAssay AID463173", "about": "(ICCB-Longwood Screening Facility, Harvard Medical School, 2010)", "note": "Among all 52,000 compounds or so, about 1,700 (3.3%) were called active. No stated cut-off is given here; in the data, active means survival mostly below about 52% (no sharp cut-off); inactive means mostly above about 56%. The list shows a part of the results."}
{"tested_on": "Wild type", "assay": "S. aureus survival, RN4220 and DeltatarO strains – OD600, teichoic acid synthesis inhibitors, primary screen (AID 463173)", "settings": "S. aureus RN4220 wild type/DeltatarO growth, OD600, 18 h, hits give low values, screened at 18.75 µg/mL (by protocol)"}
{"smiles": "COc1ccccc1CCNC(=O)Cc1c(C)c2cc3c(C(C)(C)C)coc3c(C)c2oc1=O", "survival": "inactive: 115%"}
{"smiles": "COc1ccc(CCNC(=O)c2ccc(-n3c(C)cc4c3CCCC4)cc2)cc1OC", "survival": "inactive: 83%"}
{"smiles": "CCn1c(CC(=O)Nc2ccccc2)n[nH]c1=S", "survival": "inactive: 107%"}
{"smiles": "CCCc1cc(=O)[nH]c(SCc2nc(-c3ccc(C)cc3)no2)n1", "survival": "inactive: 73%"}
{"smiles": "CCCSc1ncc(Cl)c(C(=O)Nc2c(C(=O)Nc3ccccc3)oc3ccccc23)n1", "survival": "inactive: 84%"}
{"smiles": "COc1ccc(N2CCN(S(=O)(=O)CCNC(=O)COc3cccc(OC)c3)CC2)cc1", "survival": "inactive: 72%"}
{"smiles": "CC(C)Oc1ccc(CNC(=O)Nc2ccc3c(c2)N(C)C(=O)c2ccccc2S3)cc1", "survival": "inactive: 124%"}
{"smiles": "Cc1cccc(Cn2c(SCc3ccc(C(=O)N4CCC(C)CC4)cc3)nc3ccncc32)c1", "survival": "inactive: 86%"}
{"smiles": "Cc1ccc(NC(=O)NCCOCCn2c(=O)oc3ccccc32)cc1F", "survival": "inactive: 83%"}
{"smiles": "CCC1CCCCN1C(=O)/C=C/c1ccccc1Cl", "note": "(centres undefined)", "survival": "inactive: 110%"}
{"smiles": "O=C(OCC1CCCO1)c1ccc2c(c1)N(Cc1cccc(Cl)c1)C(=O)c1ccccc1S2(=O)=O", "note": "(centres undefined)", "survival": "inactive: 84%"}
{"smiles": "Cc1cccc(NC(=O)c2c(NC(=O)c3ccccc3)sc3c2CCCC3)c1", "survival": "inactive: 82%"}
{"smiles": "Cc1cc(C)c2c(n1)nn1c(C)c(CCC(=O)NCc3ccccc3Cl)c(C)nc21", "survival": "inactive: 84%"}
{"smiles": "CN1CCSc2ccc(C(=O)NCc3ccccc3F)cc21", "survival": "inactive: 142%"}
{"smiles": "COC(=O)c1c(C)sc(-c2c(-c3ccc4c(c3)OCCO4)[nH]c3[nH]c(=O)[nH]c(=O)c23)c1O", "survival": "inactive: 92%"}
{"smiles": "CCOc1ccc(-c2cc3nc(C4CCN(C(=O)OC(C)(C)C)CC4)c(C(=O)Nc4ccc(C)cc4Cl)cn3n2)cc1", "survival": "inactive: 85%"}
{"smiles": "O=S(=O)(c1ccc(Br)cc1)c1nnn2c1nc(Nc1cccc(C(F)(F)F)c1)c1sccc12", "survival": "inactive: 95%"}
{"smiles": "COc1ccc(NC(=O)CS(=O)CC(=O)Nc2cccc(F)c2)cc1", "note": "(centres undefined)", "survival": "inactive: 105%"}
{"smiles": "COc1ccc(Cl)cc1NC(=O)CSc1c2c(nc3ccccc13)CCC2", "survival": "inactive: 70%"}
{"smiles": "COc1cc(C(=O)Nc2nc3c(s2)Cc2c(Br)ccc(OC)c2-3)cc(OC)c1OC", "survival": "inactive: 84%"}
{"smiles": "Cc1cccc(-n2c(CCN3C(=O)c4ccccc4C3=O)nc3ccccc3c2=O)n1", "survival": "inactive: 112%"}
{"smiles": "CCC(Sc1nc2ccccc2c2nc(CCc3c(C)n[nH]c3C)nn12)C(=O)Nc1ccc(OC)cc1", "note": "(centres undefined)", "survival": "inactive: 72%"}
{"smiles": "O=C(Nc1nnc(N2CCCCCC2)s1)Nc1ccccc1C(F)(F)F", "survival": "inactive: 69%"}
{"smiles": "CCN(c1ccccc1)S(=O)(=O)c1ccc(NC(=O)c2cc(=O)c3cc(C)ccc3o2)cc1", "survival": "inactive: 96%"}
{"smiles": "O=C(c1ccc2c(c1)N(Cc1ccc(F)cc1)C(=O)c1ccccc1S2=O)N1CCOCC1", "note": "(centres undefined)", "survival": "inactive: 87%"}
{"smiles": "COc1ccccc1-c1nnc(SCCOc2ccccc2C)o1", "survival": "inactive: 78%"}
{"smiles": "CC(C)c1ccc(S(=O)(=O)c2cnc(SCC(=O)Nc3cccc(C(F)(F)F)c3)nc2N)cc1", "survival": "inactive: 80%"}
{"smiles": "CCc1cccc(CC)c1NS(=O)(=O)c1ccc2c(c1)CCN2C(=O)C1CC1", "survival": "inactive: 80%"}
{"smiles": "Cc1ccc(C2=NNC(c3cccnc3)=Nc3ccc(F)cc32)o1", "survival": "inactive: 99%"}
{"smiles": "Cc1ccc(CNC(=O)c2nnc(Cc3cccc(F)c3)o2)cc1", "survival": "inactive: 91%"}
{"smiles": "CCOC(=O)c1cc(-c2ccc(OC)c(S(=O)(=O)Nc3ccc(OC)cc3OC)c2)on1", "survival": "inactive: 129%"}
{"smiles": "CCC(=O)/C=C1/Sc2ccc(C)cc2N1CC", "survival": "inactive: 113%"}
{"smiles": "O=C(Nc1ccc2nc(SCCOc3ccccc3Cl)sc2c1)c1cccs1", "survival": "inactive: 72%"}
{"smiles": "COC(=O)c1sccc1S(=O)(=O)N1CCN(c2ccccc2OC)CC1", "survival": "inactive: 76%"}
{"smiles": "COc1ccc(/C=C2\\SC(=S)N(CC(=O)NCCO)C2=O)cc1", "survival": "inactive: 114%"}
{"smiles": "COc1ccc(N2CC(C(=O)Nc3ccc(NC(C)=O)cc3)CC2=O)cc1", "note": "(centres undefined)", "survival": "inactive: 73%"}
{"smiles": "CCN1C(=O)c2ccccc2S(=O)c2ccc(C(=O)NCc3ccc(F)cc3)cc21", "note": "(centres undefined)", "survival": "inactive: 85%"}
{"smiles": "COCCCNC(=O)C(=O)NCC(c1ccc2c(c1)OCO2)N1CCOCC1", "note": "(centres undefined)", "survival": "inactive: 87%"}
{"smiles": "Cc1ccc(C)c(S(=O)(=O)c2nnn3c2nc(N2CCOCC2)c2sccc23)c1", "survival": "inactive: 113%"}
{"smiles": "CC(C)N(Cc1ccccc1)c1ncnc2c1nnn2C", "survival": "inactive: 73%"}
{"smiles": "CCOc1ccc(C(c2c(O)cc(C)n(CCOC)c2=O)N2CCN(c3ccccc3F)CC2)cc1", "note": "(centres undefined)", "survival": "inactive: 72%"}
{"smiles": "CCc1cccc(NC(=O)CCc2c(C)nc3c(c2C)c(=O)n(C)c(=O)n3C)c1", "survival": "inactive: 124%"}
{"smiles": "Cc1ccc(CNC(=O)CCSCc2ccccc2F)cc1", "survival": "inactive: 74%"}
{"smiles": "O=C(NCc1cccnc1)c1nn(-c2ccccc2F)nc1CO", "survival": "inactive: 94%"}
{"smiles": "Cc1ccc(N(C(=O)COc2ccccc2C)S(=O)(=O)c2ccc(Cl)cc2)cc1", "survival": "inactive: 73%"}
{"smiles": "Cc1cc(C)c2oc(C(=O)Nc3sc4c(c3C(=O)NCc3ccco3)CCCC4)cc(=O)c2c1", "survival": "inactive: 82%"}
{"smiles": "Cc1ccc(NC(=O)c2cccc(N3CCCS3(=O)=O)c2)cc1", "survival": "inactive: 80%"}
{"smiles": "CN(CC(=O)Nc1ccc(Cl)cc1)C1CCCCC1", "survival": "inactive: 110%"}
{"smiles": "Cc1ccc(Nc2c(-c3cc(Br)ccc3F)nc3cc(C)ccn23)cc1", "survival": "active: 0%"}
{"smiles": "CC(CN1CCOCC1)OC(=O)C(C)(c1ccccc1)c1ccccc1", "note": "(centres undefined)", "survival": "inactive: 109%"}
{"smiles": "CCN(CC)S(=O)(=O)c1cc(-c2nnc(Nc3ccc(OC)c(C(N)=O)c3)c3ccccc23)ccc1C", "survival": "inactive: 84%"}
{"smiles": "CCOCCCNC(=O)c1ccc(NC(=O)N2CCCCc3ccccc32)cc1", "survival": "inactive: 70%"}
{"smiles": "COc1ccccc1N1CCN(c2ccc(=O)n(CC(=O)Nc3ccc(F)c(F)c3)n2)CC1", "survival": "inactive: 89%"}
{"smiles": "Cc1c(NC(=O)c2ccc(Cl)cc2)cc(C(C)C)c(O)c1S(=O)(=O)c1ccc(Cl)cc1", "survival": "inactive: 73%"}
{"smiles": "COc1ccccc1NC(=O)Cn1c(=O)n(-c2ccc(C)cc2)c(=O)c2ccc(C(=O)NCc3ccco3)cc21", "survival": "inactive: 71%"}
{"smiles": "Cc1ccc(S(=O)(=O)Cn2nnnc2CN2CCC(Cc3ccccc3)CC2)cc1", "survival": "inactive: 90%"}
{"smiles": "CCOc1ccc(NC(=O)N2CCC(CN3CCc4ccccc4C3)CC2)cc1", "survival": "active: -3%"}
{"smiles": "O=C(NCc1ccc(Cl)cc1)C1CCCN(C(=O)c2cnn(-c3ccc(F)cc3)c2-n2cccc2)C1", "note": "(centres undefined)", "survival": "inactive: 75%"}
{"smiles": "O=C(CCn1c(=O)c2cccn2c2ccc(F)cc21)NCCc1ccccc1", "survival": "inactive: 57%"}
{"smiles": "C/C(Cc1nc2ccccc2[nH]1)=N/Nc1ccccc1", "survival": "inactive: 40%"}
{"smiles": "CCCc1cc(C(=O)Nc2c(C)nn(Cc3ccc(C)cc3)c2C)no1", "survival": "inactive: 72%"}
{"smiles": "Cc1ccc(C)c(Nc2cc(C(=O)NC3CCCCC3)c3ccccc3n2)c1", "survival": "inactive: 84%"}
{"smiles": "CCC(=O)N1CCc2cc(CNC(=O)C(CC)c3ccccc3)ccc21", "note": "(centres undefined)", "survival": "inactive: 73%"}
{"smiles": "Cc1ccccc1Cn1c(=O)n(CCc2ccccc2)c(=O)c2c(C)c(C)sc21", "survival": "inactive: 41%"}
{"smiles": "COc1cccc(OCCSc2nc3ccccc3n2CC(=O)N2CCCCC2)c1", "survival": "inactive: 78%"}
{"smiles": "COc1ccc(-c2nc(CN3CCC(C(=O)NCCCOC(C)C)CC3)c(C)o2)cc1OC", "survival": "inactive: 80%"}
{"smiles": "COc1cccc(-n2cc(C(=O)NCc3ccccc3OC)c3ccccc3c2=O)c1", "survival": "inactive: 87%"}
{"smiles": "CCc1cc2c(cc3c(=O)n(CC(=O)NCCc4ccc(OC)c(OC)c4)ncn32)s1", "survival": "inactive: 96%"}
{"smiles": "COC(=O)c1cc(S(=O)(=O)NCC2CCN(Cc3cccc(F)c3)CC2)c[nH]1", "survival": "inactive: 90%"}
{"smiles": "COc1cc(OC)c(C2Nc3ccccc3-c3nnc(SCc4ccccc4)nc3O2)cc1OC", "note": "(centres undefined)", "survival": "inactive: 77%"}
{"smiles": "COc1ccc(OC)c(C2N=C(N)Nc3nc4ccccc4n32)c1", "note": "(centres undefined)", "survival": "inactive: 72%"}
{"smiles": "CCN(CC)Cn1c(=S)sc2ccccc21", "survival": "inactive: 92%"}
{"smiles": "O=C(CCn1ccc2cc(S(=O)(=O)N3CCCC3)ccc21)NCc1cccc(F)c1", "survival": "inactive: 55%"}
{"smiles": "COC(=O)CSc1nc(-c2ccc(F)cc2)cc(C(F)(F)F)n1", "survival": "inactive: 123%"}
{"smiles": "Cc1cccc(C)c1-n1ncc(C(=O)NCCN2CCOCC2)c1C1CCN(C(=O)OC(C)(C)C)CC1", "survival": "inactive: 75%"}
{"smiles": "COc1ccc(NC(=O)Cn2c(=O)n(Cc3nc(C)no3)c(=O)c3cc4c(cc32)OCO4)cc1OC", "survival": "inactive: 70%"}
{"smiles": "Cc1nc(-c2ccc(Cl)cc2)sc1CCNC(=O)c1ccc(C(F)(F)F)cc1", "survival": "inactive: 153%"}
{"smiles": "Nc1ccc2nc(SCC(=O)O)sc2c1", "survival": "inactive: 84%"}
{"smiles": "Cc1ccc(C)c(NC(=O)CCn2nc(C)c3c(C)n(-c4ccccc4)nc3c2=O)c1", "survival": "active: 10%"}
{"smiles": "COC(=O)CSc1nc2ccc(C(C)C)cc2cc1C#N", "survival": "inactive: 103%"}
{"smiles": "CCC(C(=O)Nc1ccccc1C(=O)OC)n1nc(C)c2c(C)n(-c3ccc(C)cc3)nc2c1=O", "note": "(centres undefined)", "survival": "inactive: 66%"}
{"smiles": "Cc1cccc(-c2nn3c(=O)cc(CN4CCN(S(=O)(=O)c5ccc(Cl)cc5)CC4)nc3s2)c1", "survival": "inactive: 74%"}
{"smiles": "Cc1ccc(C)c(NC(=O)c2ccc3c(c2)CCN3S(C)(=O)=O)c1", "survival": "inactive: 114%"}
{"smiles": "COc1ccccc1C(=O)OCc1cc(=O)n2nc(C3CC3)sc2n1", "survival": "inactive: 99%"}
{"smiles": "CCC1CCc2nc3sc(C(=O)Nc4ccc(F)c(Cl)c4)c(N)c3cc2C1", "note": "(centres undefined)", "survival": "inactive: 88%"}
{"smiles": "COc1ccc2nc(-c3ccc(N)cc3)[nH]c2c1", "survival": "inactive: 99%"}
{"smiles": "COc1ccccc1CNC(=O)CSc1ncc2c(n1)-c1ccc(Cl)cc1N(Cc1ccccc1)S2(=O)=O", "survival": "active: 0%"}
{"smiles": "COc1ccc(NC(=O)C(c2ccc(C)cc2)N(C)C(=O)Cc2cccs2)cc1", "note": "(centres undefined)", "survival": "inactive: 85%"}
{"smiles": "COc1ccccc1Nc1nc(Nc2cccc(C(F)(F)F)c2)nc(N2CCOCC2)n1", "survival": "inactive: 127%"}
